Test results as given in PubChem BioAssay AID1671194 (National Center for Advancing Translational Sciences (NCATS), 2021).
Screen size: about 140,000 compounds; about 240 (0.17%) were called active. The shares of active, inactive and inconclusive entries below differ from those in the screen. Calls follow the shape of the dose curve; as a rule, active = well fitted inhibition curve with a large enough effect; inconclusive = small, poorly fitted or top-dose-only effect; inactive = no such curve, though single readings can be large or run the other way. A potency beside an inconclusive call is a rough fit, not a confirmed value.

Assay: Primary qHTS assay for inhibitors of alpha-synuclein gene (SNCA) expression; also: nearly all actives have a fitted effect of over 45% in size
Settings: HEK-293 SNCA-luciferase knock-in, luminescence, 24 h; series mostly up to 57.2 µM
Potency is read from the fitted curve at half-maximal effect; tags tell the direction and shape of the fitted curve.

Row | SMILES | Potency
1 | O=C(CC1CCCC1)N1CC(c2nc(CCOCc3ccccc3)no2)C1 | inconclusive: 3.98 µM [inhibitor, single point]
2 | CC(C)Cc1cc(C[C@@H]2C[C@H](NC(=O)c3ccco3)C2(C)C)no1 | inactive
3 | O=C(c1cc(F)ccc1F)N1CCCC2(C1)NC(=O)N(Cc1ccc(Cl)cc1)C2=O (stereo unspecified) | inconclusive: 39.8 µM [inhibitor, single point]
4 | CCC(NC(=O)c1cc(COc2ccccc2F)[nH]n1)c1ccncc1 (stereo unspecified) | inactive
5 | COc1ccc2c(c1)CCN=C2C[C@H]1CN(C(=O)C(=O)O)CC[C@H]1CC(=O)O | inactive
6 | O=C(Cc1ccsc1)N1CC(Oc2ccccc2-c2nc(-c3ccccc3)no2)C1 | inactive
7 | Cc1ccccc1C(=O)N1CCC(C(=O)N2CCCC2c2nc3ccncc3[nH]2)CC1 (stereo unspecified) | inactive
8 | Cn1c(C(=O)NCCc2cnc[nH]2)nc2nc(-c3ccccc3)c(Cl)cc21 | inactive
9 | Cc1nc(CCCNC(=O)[C@H]2CNC[C@@H](C(=O)N3CCOCC3)C2)sc1C | inactive
10 | Cc1ccc2c(CC(=O)Nc3ccc(S(=O)(=O)N4CCCCC4)cc3)coc2c1 | inconclusive: 7.08 µM [inhibitor, single point]
11 | COc1ccc(C(=O)OC2=C(C(=O)c3ccccc3)N(C)S(=O)(=O)c3ccccc32)cc1OC | inconclusive: 15.8 µM [inhibitor, partial curve, poor fit]
12 | O=C(c1ccccc1)N1CCN(c2cc(-c3ccc(Cl)cc3)[nH]n2)CC1 | inactive
13 | CCNC(=O)c1c(NC(=O)Cc2coc3cc(C)cc(C)c23)sc2c1CCCC2 | inconclusive: 7.08 µM [inhibitor, single point]
14 | O=C(Nc1ccc(F)cc1)C1CCCN(c2nc3ncccc3o2)C1 (stereo unspecified) | inconclusive: 50.1 µM [inhibitor, single point]
15 | Cc1ccc(S(=O)(=O)N[C@H]2C[C@@H](c3nc(-c4ccccc4)no3)N(C)C2)cc1 | inactive
16 | COc1cc(NC(=O)NC(C)c2c(-n3cccc3)sc3c2CCCC3)cc(OC)c1OC (stereo unspecified) | inconclusive: 17.8 µM [inhibitor, partial curve, poor fit]
17 | CCc1nc(-c2c3n(c(=O)n(CC(=O)Nc4ccccc4C)c2=O)CCCCC3)no1 | inconclusive: 39.8 µM [inhibitor, single point]
18 | Fc1ccc(-c2nnc3ccc(NCC4CC4)nn23)nc1 | inconclusive: 14.1 µM [inhibitor, single point]
19 | CC(=O)N1CCCC1c1nc2ccccc2n1Cc1ccccc1C (stereo unspecified) | inconclusive: 3.98 µM [inhibitor, partial curve]
20 | Cc1nn(Cc2ccccc2)c(C)c1[C@@H]1C=C[C@@H](NC(=O)Nc2cccc(C#N)c2)C1 | inconclusive: 3.55 µM [inhibitor, full curve, poor fit]
21 | Cc1ccc(NC(=O)Cn2c(=O)n(CCC(=O)NCc3ccccc3Cl)c(=O)c3ccccc32)cc1 | inconclusive: 1.41 µM [inhibitor, single point]

Row | SMILES | Potency
22 | CCN1c2cc(C(=O)Nc3cccc(C(F)(F)F)c3)ccc2C(=O)N2CCCCC21 (stereo unspecified) | inconclusive: 10 µM [inhibitor, partial curve, poor fit]
23 | CC(C)(C)c1ccc(C(=O)N2CCC(c3n[nH]c(=O)n3Cc3ccc(F)cc3)CC2)cc1 | inconclusive: 39.8 µM [inhibitor, single point]
24 | CC1=C(c2ccc(Cl)cc2)S(=O)(=O)N=C1N1CCC(C(=O)NCc2ccccc2F)CC1 | inconclusive: 7.08 µM [inhibitor, single point]
25 | COc1ccccc1CCC(=O)NC1CCc2nnc(C)n2CC1 (stereo unspecified) | inactive
26 | COc1ccccc1CNC(=O)c1cc2n(n1)CC(c1ccc3c(c1)OCO3)OC2 (stereo unspecified) | inconclusive: 11.2 µM [inhibitor, partial curve, poor fit]
27 | CN(C)c1ccc(CN[C@H]2CO[C@H]3[C@@H]2OC[C@H]3OC(=O)Nc2ccc(Oc3ccccc3)cc2)cc1 | inconclusive: 12.6 µM [inhibitor, single point]
28 | COc1ccc(NC(=O)c2c(NCc3cccc(OC)c3)sc3c2CCCC3)cc1 | inconclusive: 31.6 µM [inhibitor, single point]
29 | O=C(Nc1ccc(Cl)c(C(F)(F)F)c1)C1CCN(S(=O)(=O)c2cccc3nonc23)CC1 | inconclusive: 39.8 µM [inhibitor, single point]
30 | CN1C(=O)CCC2(CNC(=O)CCc3nc(-c4ccccc4)no3)CCC=C12 (stereo unspecified) | inconclusive: 3.16 µM [inhibitor, single point]
31 | CCCCn1c(NCc2ccc(N(C)C)cc2)nc2ccccc21 | inconclusive: 12.6 µM [inhibitor, partial curve, poor fit]
32 | COc1ccc(NC(=O)Cn2c(=O)ccc3cc(S(=O)(=O)N4CCCC4)ccc32)cc1Cl | inconclusive: 2.82 µM [inhibitor, full curve, poor fit]
33 | Cc1cccc(N2CCN(C(=O)Cn3nc(Cc4cccnc4)c4ccccc4c3=O)CC2)c1C | inconclusive: 20 µM [inhibitor, partial curve, poor fit]
34 | CC(CCc1ccc(O)cc1)NCCc1ccc(O)c(O)c1 (stereo unspecified) | inconclusive: 3.98 µM [inhibitor, single point]
35 | CCC(=O)N1CCCC(c2nc(-c3ccc4nc[nH]c4c3)no2)C1 (stereo unspecified) | inconclusive: 3.98 µM [inhibitor, full curve, poor fit]
36 | COc1ccccc1Nc1nn2c(=O)c3ccc(C(=O)NCCC4=CCCCC4)cc3nc2s1 | inconclusive: 7.08 µM [inhibitor, single point]
37 | Fc1ccc2oc([C@H]3CCN(Cc4ccc(F)c(F)c4)C3)nc2c1 | inactive
38 | CCCCc1cc(C[C@H]2CNCC[C@H]2CC(=O)Nc2nccs2)no1 | inactive
39 | COC(=O)C(=O)N1CC[C@H]2NC(=O)N(c3ccccc3)C(=O)[C@H]21 | inconclusive: 56.2 µM [inhibitor, single point]
40 | Cc1cc(-c2cc3c(cn2)CN(Cc2ccc(C(F)(F)F)cc2)CCN3)ccn1 | inactive
41 | COc1ccccc1C(=O)NC1CCN(Cc2cccc(-c3ccc(F)c(F)c3)c2)CC1 | inconclusive: 7.08 µM [inhibitor, single point]
